The campaign covered roughly 310,000 compounds. About 14,000 (4.5%) showed an effect of 50% or more. The effect is printed as a negative number. The list shows a part of the results.
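Note: peak tail current of the secondary pulse compared with the same well before compound.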

Chain of human ether-à-go-go-related gene (hERG) potassium channel (Q12809 whole entry, looked up): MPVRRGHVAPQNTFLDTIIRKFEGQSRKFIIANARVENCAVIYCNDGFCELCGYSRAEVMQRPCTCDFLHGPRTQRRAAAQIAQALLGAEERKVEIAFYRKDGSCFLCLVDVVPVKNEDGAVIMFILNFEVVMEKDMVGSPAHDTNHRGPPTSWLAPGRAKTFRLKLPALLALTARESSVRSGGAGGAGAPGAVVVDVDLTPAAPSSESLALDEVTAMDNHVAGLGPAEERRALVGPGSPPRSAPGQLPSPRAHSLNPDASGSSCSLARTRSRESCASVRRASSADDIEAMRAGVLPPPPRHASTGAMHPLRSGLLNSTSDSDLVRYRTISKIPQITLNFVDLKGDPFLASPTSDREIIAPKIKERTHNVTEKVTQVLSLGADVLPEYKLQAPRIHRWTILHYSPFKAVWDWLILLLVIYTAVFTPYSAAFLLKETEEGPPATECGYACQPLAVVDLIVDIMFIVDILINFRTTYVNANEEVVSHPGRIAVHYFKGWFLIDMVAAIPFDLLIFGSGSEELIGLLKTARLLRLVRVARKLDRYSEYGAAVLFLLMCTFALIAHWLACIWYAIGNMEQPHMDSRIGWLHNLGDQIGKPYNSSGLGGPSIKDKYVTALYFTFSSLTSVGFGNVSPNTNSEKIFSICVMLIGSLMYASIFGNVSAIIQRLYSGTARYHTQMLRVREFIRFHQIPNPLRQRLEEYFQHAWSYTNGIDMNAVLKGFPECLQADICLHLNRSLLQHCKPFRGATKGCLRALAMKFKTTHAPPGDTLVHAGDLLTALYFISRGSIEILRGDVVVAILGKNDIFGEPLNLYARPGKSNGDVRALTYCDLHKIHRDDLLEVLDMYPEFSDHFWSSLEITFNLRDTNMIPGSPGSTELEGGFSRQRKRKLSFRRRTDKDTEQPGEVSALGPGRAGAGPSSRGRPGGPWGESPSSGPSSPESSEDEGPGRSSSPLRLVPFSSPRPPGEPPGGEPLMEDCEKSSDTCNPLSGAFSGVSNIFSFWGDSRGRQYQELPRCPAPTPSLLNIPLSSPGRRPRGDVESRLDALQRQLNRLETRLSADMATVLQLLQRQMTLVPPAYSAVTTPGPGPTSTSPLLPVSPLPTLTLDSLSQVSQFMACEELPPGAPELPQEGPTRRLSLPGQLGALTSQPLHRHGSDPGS

This assay concerns the target human ether-à-go-go-related gene (hERG) potassium channel (human, UniProt Q12809). Briefly: primary screen, population patch clamp on CHO cells stably expressing hERG.
Turning to `Cc1cc(O)ccc1Nc1nc2ccccc2nc1Nc1ccc(O)cc1C`, the “hERG current change (%, negative = inhibition) at 10uM” value is on record as 3.68%.

Turning to `Cc1ccc(/C=N/NC(=O)c2cccs2)o1`, the “hERG current change (%, negative = inhibition) at 10uM” value was found to be 8.42%.

For `O=C(CSc1nc(O)c(Cc2ccccc2)c(=O)[nH]1)N1CCOCC1`, the “hERG current change (%, negative = inhibition) at 10uM” value was determined as 2.94%.

As for `Cc1nc2ccccc2c(=O)n1NC(=O)Cc1ccc([N+](=O)[O-])cc1`, the “hERG current change (%, negative = inhibition) at 10uM” value is on record as -30.6%.

Take `Cc1ccc(N=Nc2ccc(O)cc2)c(Br)c1`: the “hERG current change (%, negative = inhibition) at 10uM” value is recorded as 16.4%.

With `COc1cccc(NC(=O)C2CCN(S(=O)(=O)c3ccc4c(c3)NC(=O)C(C)S4)CC2)c1` (centres unmarked), the “hERG current change (%, negative = inhibition) at 10uM” value is listed as 16.5%.

In the case of `COc1ccc(C(=O)NCC(=O)OCc2ccc(F)cc2)cc1`, the “hERG current change (%, negative = inhibition) at 10uM” value was -18.8%.

For `CSc1nc(-c2ccccc2)nn1S(=O)(=O)c1ccc(Cl)cc1`, the “hERG current change (%, negative = inhibition) at 10uM” value was determined as 14.8%.

With `O=C(c1cccc(Br)c1)c1cn(-c2ccccc2)nc1C(=O)c1ccccc1`, the “hERG current change (%, negative = inhibition) at 10uM” value is recorded as 5.57%.

In the case of `COc1ccc2nc(NC(=O)c3ccc(-n4nc(C)cc4C)cc3)sc2c1`, the “hERG current change (%, negative = inhibition) at 10uM” value was found to be 21%.

With `O=S(=O)(NCc1ccccn1)c1ccc(Cl)c(C(F)(F)F)c1`, the “hERG current change (%, negative = inhibition) at 10uM” value amounted to 12.5%.

Take `O=C(c1ccc(=O)[nH]c1)N1CCN(S(=O)(=O)c2ccc(Cl)cc2)CC1`: the “hERG current change (%, negative = inhibition) at 10uM” value is reported as 15%.

As for `CCN(Cc1ccccc1)S(=O)(=O)c1ccc(C(=O)Nc2nnc(C3CC3)o2)cc1`, the “hERG current change (%, negative = inhibition) at 10uM” value is -36.7%.

In the case of `CCN(CC)S(=O)(=O)c1ccc(N2CCCC2)c(NS(=O)(=O)c2ccc(F)cc2)c1`, the “hERG current change (%, negative = inhibition) at 10uM” value is -16.2%.

For the compound `CN1C(=O)[C@@H]2[C@H](C1=O)[C@@H]1C(=O)Nc3ccccc3C(=O)N1[C@@H]2c1cccc(Br)c1`, the “hERG current change (%, negative = inhibition) at 10uM” value was -30%.

Take `CSc1n[nH]c(NCc2ccc(Cl)cc2)n1`: the “hERG current change (%, negative = inhibition) at 10uM” value was determined as 6.04%.

For the compound `Cc1ccc(-n2nnnc2SCC(=O)NC2CCCc3ccccc32)cc1` (centres unmarked), the “hERG current change (%, negative = inhibition) at 10uM” value is -23.8%.

Consider `CCN1C(=O)C2C(c3ccc(O)c(OC)c3)NC(C)(C(=O)OC)C2C1=O` (centres unmarked), for which the “hERG current change (%, negative = inhibition) at 10uM” value turned out to be 12.1%.

On to `COCCNC(=O)C(NC(=O)C1CCC(C)CC1)C(C)C` (centres unmarked), for which the “hERG current change (%, negative = inhibition) at 10uM” value is on record as 3.79%.

Consider `COc1ccc(NC(=O)C2CC(c3ccc(OC)c(OC)c3)=NO2)cc1OC` (centres unmarked), for which the “hERG current change (%, negative = inhibition) at 10uM” value was -6.91%.

Take `Cc1cc(=O)[nH]c(Nc2ccc(C(=O)OC(C)C)cc2)n1`: the “hERG current change (%, negative = inhibition) at 10uM” value amounted to 8.63%.

Take `O=C(COC(=O)CCC(=O)c1ccc(Cl)cc1)NC1CC1`: the “hERG current change (%, negative = inhibition) at 10uM” value is 7.93%.

With `CC(C)(C)n1nnnc1CN1CCN(C2CCCC2)CC1`, the “hERG current change (%, negative = inhibition) at 10uM” value came out at 2.52%.

For `COC(=O)c1ccc2ccccc2c1OC1OC(CO)C(O)C(O)C1NC(C)=O` (centres unmarked), the “hERG current change (%, negative = inhibition) at 10uM” value is recorded as 13.8%.

Consider `CCCc1ccc(OCc2ccc(C(=O)N3CCN(c4ccccn4)CC3)o2)c(OC)c1`, for which the “hERG current change (%, negative = inhibition) at 10uM” value was -56.5%.

`O=C(NN1CCCCC1)c1cnn2c(C(F)F)cc(-c3ccccc3)nc12`: the “hERG current change (%, negative = inhibition) at 10uM” value was -2.14%.

On to `Cc1cccc(CCNC(=O)CCNC(=O)Cn2ccc3ccccc3c2=O)c1`, for which the “hERG current change (%, negative = inhibition) at 10uM” value came out at 8.39%.

As to `O=C(COC(=O)c1ccc[nH]c1=O)NCC12CC3CC(CC(C3)C1)C2`, the “hERG current change (%, negative = inhibition) at 10uM” value was determined as 13.4%.

Turning to `Cc1ccc(CNC(=O)C2CCCN(c3nc4ccccc4o3)C2)cc1` (centres unmarked), the “hERG current change (%, negative = inhibition) at 10uM” value was -1.06%.

For the compound `CC(=O)Nc1sc2c(c1CN1CCCC1)CCCC2`, the “hERG current change (%, negative = inhibition) at 10uM” value turned out to be 7.34%.

As for `CCOC(=O)C1(CCCc2ccccc2)CCN(C(=O)CCc2cnccn2)CC1`, the “hERG current change (%, negative = inhibition) at 10uM” value was -66.4%.

As to `Cc1nc(-c2ccccc2)cc(N2CCCC2)n1`, the “hERG current change (%, negative = inhibition) at 10uM” value was -16.7%.

Regarding `COCCCNC(=S)Nc1cccc2ncccc12`, the “hERG current change (%, negative = inhibition) at 10uM” value was found to be 15.9%.

As to `COc1ccccc1OCCCCOc1ccccc1C(C)=O`, the “hERG current change (%, negative = inhibition) at 10uM” value is recorded as -6.16%.

For `Cc1ccc(NC(=O)Nc2nnc(-c3ccncc3)s2)cc1`, the “hERG current change (%, negative = inhibition) at 10uM” value was 1.21%.

On to `CCOC(=O)c1c(NC(=O)CSc2nnnn2-c2ccccc2OCC)sc2c1CC(C)(C)NC2(C)C`, for which the “hERG current change (%, negative = inhibition) at 10uM” value is on record as -71.2%.

On to `COc1ccc(-c2nc(CS(=O)(=O)CC(=O)NCCc3cc(OC)ccc3OC)c(C)o2)cc1`, for which the “hERG current change (%, negative = inhibition) at 10uM” value is listed as -16.1%.

`CCc1cccc(C)c1NC(=S)NCC(c1cccnc1)N1CCOCC1` (centres unmarked): the “hERG current change (%, negative = inhibition) at 10uM” value is on record as -14.3%.

Turning to `CC1(C)Cc2c(C#N)c(NCc3ccco3)nc(-c3ccco3)c2CO1`, the “hERG current change (%, negative = inhibition) at 10uM” value is -8.94%.

For `CC1=CC(C)(C)NC(=S)N1c1cc(C)cc(C)c1`, the “hERG current change (%, negative = inhibition) at 10uM” value is on record as 10.5%.

Regarding `CC(C)CCN1CC(=O)N2Cc3[nH]c4ccccc4c3C[C@H]2C1=O`, the “hERG current change (%, negative = inhibition) at 10uM” value is 15.8%.

In the case of `COc1ccc(C(=O)Oc2cccc3cccnc23)cc1[N+](=O)[O-]`, the “hERG current change (%, negative = inhibition) at 10uM” value was determined as 5.68%.

As for `Cc1cc(=O)oc2c(C(=O)/C=C/c3ccccc3)c(O)ccc12`, the “hERG current change (%, negative = inhibition) at 10uM” value was found to be 1.93%.

As to `COC(=O)C1C(O)C(C)C(O)C(C)/C=C\C=C(/C)C(=O)Nc2c(C)c(OC(C)=O)c3c(c2O)C(=O)C(C)=C2OCOC(=C23)/C(C)=C/C(C)(O)C(O)C(C)C1O` (centres unmarked), the “hERG current change (%, negative = inhibition) at 10uM” value was 3.92%.
